The values below come from patent US20250064952A1 (ACCELERON PHARMA, published 2025).

Test in all cases: cell-based or functional assay
The target in assay [1] is T1, activin B (UniProt P09529 293-407).
T1 sequence (looked up): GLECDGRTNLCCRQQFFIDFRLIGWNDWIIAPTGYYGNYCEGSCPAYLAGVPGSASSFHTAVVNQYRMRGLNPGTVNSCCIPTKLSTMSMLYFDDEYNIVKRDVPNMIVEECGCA

The target in assay [2] is T2, BMP9 (UniProt Q9UK05 320-429).
T2 sequence (looked up): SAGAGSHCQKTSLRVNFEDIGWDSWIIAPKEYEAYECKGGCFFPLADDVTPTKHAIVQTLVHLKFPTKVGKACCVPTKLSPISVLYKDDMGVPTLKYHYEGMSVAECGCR

For assay [3], the target named is T3, GDF11 (UniProt O95390 299-407).
T3 sequence (looked up): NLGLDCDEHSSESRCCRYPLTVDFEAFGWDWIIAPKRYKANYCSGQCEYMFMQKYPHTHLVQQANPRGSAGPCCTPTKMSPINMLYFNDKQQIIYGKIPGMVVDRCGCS

Assay [4] deals with T4, BMP10 (UniProt O95393 317-424).
T4 sequence (looked up): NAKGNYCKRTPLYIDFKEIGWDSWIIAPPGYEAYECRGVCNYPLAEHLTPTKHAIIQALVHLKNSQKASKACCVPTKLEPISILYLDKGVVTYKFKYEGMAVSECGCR

Assay [5] concerns the target T5, GDF8 (UniProt O14793 267-375).
T5 sequence (looked up): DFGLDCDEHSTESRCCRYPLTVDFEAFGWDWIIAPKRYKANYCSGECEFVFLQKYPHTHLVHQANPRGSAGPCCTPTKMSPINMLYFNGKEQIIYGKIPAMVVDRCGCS

The target of assay [6] is T6, activin A (UniProt P08476 311-426).
T6 sequence (looked up): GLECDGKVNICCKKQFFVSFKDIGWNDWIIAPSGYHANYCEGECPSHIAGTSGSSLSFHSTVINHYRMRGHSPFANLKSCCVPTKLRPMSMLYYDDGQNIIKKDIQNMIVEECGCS

The target in assay [7] is T2, BMP9. The source holds these as a separate data set.
For assay [8], the target named is T3, GDF11. This is another data set of the same source.
Assay [9] deals with T6, activin A. The source holds these as a separate data set.

Like-named read-outs stand apart in the source and are kept apart here. A value given as a limit tells only on which side of the number the result lay.

B1: ActRIIB(20-134)-G1Fc (Fc fusion)
chain: GRGEAETRECIYYNANWELERTNQSGLERCEGEQDKRLHCYASWRNSSGTIELVKKGCWLDDFNCYDRQECVATEENPQVYFCCCEGNFCNERFTHLPEAGGPEVTYEPPPTAPTG[sequence of human IgG1 Fc and a few adjoining residues omitted]
Turning to B1, the “IC50, A204 (CAGA)12 luciferase reporter” value in assay [1] was 0.067 nM; in assay [2], 1.82 nM; in assay [3], 0.12 nM; in [4], 0.036 nM; in assay [5], 0.95 nM; in assay [6] it was 0.05 nM. Besides, the “IC50, A204 (CAGA)12 luciferase reporter” value in assay [7] turned out to be 31 ng/mL; in assay [8], 9 ng/mL; in [9] it was 8 ng/mL.

B2: ActRIIB(F82K-N83R)-G1Fc (Fc fusion)
chain: GRGEAETRECIYYNANWELERTNQSGLERCEGEQDKRLHCYASWRNSSGTIELVKKGCWLDDKRCYDRQECVATEENPQVYFCCCEGNFCNERFTHLPEAGGPEVTYEPPPTAPTG[sequence of human IgG1 Fc and a few adjoining residues omitted]
On to B2, for which the “IC50, A204 (CAGA)12 luciferase reporter” value in [1] stood at 0.09 nM; in [4], 0.53 nM; in assay [6], 1.32 nM.

B3: ActRIIB(F82T)-G1Fc (Fc fusion)
chain: GRGEAETRECIYYNANWELERTNQSGLERCEGEQDKRLHCYASWRNSSGTIELVKKGCWLDDTNCYDRQECVATEENPQVYFCCCEGNFCNERFTHLPEAGGPEVTYEPPPTAPTG[sequence of human IgG1 Fc and a few adjoining residues omitted]
B3: the “IC50, A204 (CAGA)12 luciferase reporter” value in [1] is 0.09 nM; in [3], 0.27 nM; in [4] it was 0.07 nM; in [5], 2.17 nM; in [6], 0.1 nM.

B4: ActRIIB(L79H)-G1Fc (Fc fusion)
chain: GRGEAETRECIYYNANWELERTNQSGLERCEGEQDKRLHCYASWRNSSGTIELVKKGCWHDDFNCYDRQECVATEENPQVYFCCCEGNFCNERFTHLPEAGGPEVTYEPPPTAPTG[sequence of human IgG1 Fc and a few adjoining residues omitted]
For the molecule B4, the “IC50, A204 (CAGA)12 luciferase reporter” value in [1] is 0.07 nM; in assay [3], 0.24 nM; in assay [4], > 100 nM; in [5], 5.76 nM; in assay [6] it was > 10 nM.

B5: ActRIIB(F82I-N83R)-G1Fc (Fc fusion)
chain: GRGEAETRECIYYNANWELERTNQSGLERCEGEQDKRLHCYASWRNSSGTIELVKKGCWLDDIRCYDRQECVATEENPQVYFCCCEGNFCNERFTHLPEAGGPEVTYEPPPTAPTG[sequence of human IgG1 Fc and a few adjoining residues omitted]
For B5, the “IC50, A204 (CAGA)12 luciferase reporter” value in assay [1] was determined as 0.08 nM; in assay [3] it was 9.95 nM; in assay [4], 13.2 nM; in [6], 1.67 nM.

B6: ActRIIB(L79H-F82K)-G1Fc (Fc fusion)
chain: GRGEAETRECIYYNANWELERTNQSGLERCEGEQDKRLHCYASWRNSSGTIELVKKGCWHDDKNCYDRQECVATEENPQVYFCCCEGNFCNERFTHLPEAGGPEVTYEPPPTAPTG[sequence of human IgG1 Fc and a few adjoining residues omitted]
Regarding B6, the “IC50, A204 (CAGA)12 luciferase reporter” value was 0.1 nM in assay [1], > 100 nM in assay [3] and > 100 nM in assay [4].

B7: ActRIIB(F82T-N83R)-G1Fc (Fc fusion)
chain: GRGEAETRECIYYNANWELERTNQSGLERCEGEQDKRLHCYASWRNSSGTIELVKKGCWLDDTRCYDRQECVATEENPQVYFCCCEGNFCNERFTHLPEAGGPEVTYEPPPTAPTG[sequence of human IgG1 Fc and a few adjoining residues omitted]
For B7, the “IC50, A204 (CAGA)12 luciferase reporter” value in [1] came out at 0.11 nM; in assay [3] it was 17.9 nM; in [4], 12.6 nM; in assay [6], 1.52 nM.

B8: ActRIIB(L79H-F82I)-G1Fc (Fc fusion)
chain: GRGEAETRECIYYNANWELERTNQSGLERCEGEQDKRLHCYASWRNSSGTIELVKKGCWHDDINCYDRQECVATEENPQVYFCCCEGNFCNERFTHLPEAGGPEVTYEPPPTAPTG[sequence of human IgG1 Fc and a few adjoining residues omitted]
For the molecule B8, the “IC50, A204 (CAGA)12 luciferase reporter” value in assay [1] is 0.15 nM; in assay [3] it was 0.36 nM; in assay [4], > 100 nM; in assay [5] it was > 10 nM; in assay [6] it was > 100 nM.
